Assay results published in paper PMC5852078.
These are yes or no findings as the source states them, for the method shown. Binding seen in cells or lysates may run through a third protein. Some entries that bind do so weakly or less than the wild type.

The chains behind the UniProt entries cited, without tags or fusion partners. Residues count along the entry.
UniProt P10747, residues 19-220: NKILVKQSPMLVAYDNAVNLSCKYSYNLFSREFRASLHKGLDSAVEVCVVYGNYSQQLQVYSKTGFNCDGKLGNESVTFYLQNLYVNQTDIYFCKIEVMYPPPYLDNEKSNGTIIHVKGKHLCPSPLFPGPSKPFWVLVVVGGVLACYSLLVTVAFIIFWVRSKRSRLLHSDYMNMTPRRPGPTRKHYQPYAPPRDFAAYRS
UniProt P31041, residues 20-218: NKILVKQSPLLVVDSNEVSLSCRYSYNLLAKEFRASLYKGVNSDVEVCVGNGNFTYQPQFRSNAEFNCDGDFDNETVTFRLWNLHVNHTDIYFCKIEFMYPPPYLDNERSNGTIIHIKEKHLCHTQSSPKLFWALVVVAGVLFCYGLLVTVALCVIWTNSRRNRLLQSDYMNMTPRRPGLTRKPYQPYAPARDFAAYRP
UniProt O43639: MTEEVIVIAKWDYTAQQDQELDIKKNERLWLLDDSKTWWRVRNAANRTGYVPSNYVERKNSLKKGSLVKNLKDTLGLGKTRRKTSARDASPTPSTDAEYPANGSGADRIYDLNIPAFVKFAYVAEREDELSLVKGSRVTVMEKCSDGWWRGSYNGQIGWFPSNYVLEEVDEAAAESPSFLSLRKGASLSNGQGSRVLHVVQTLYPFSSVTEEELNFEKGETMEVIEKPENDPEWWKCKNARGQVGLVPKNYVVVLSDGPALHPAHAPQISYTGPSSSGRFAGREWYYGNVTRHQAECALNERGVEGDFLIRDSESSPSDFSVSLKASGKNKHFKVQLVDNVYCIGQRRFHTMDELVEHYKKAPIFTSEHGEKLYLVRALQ

Tests used:
[1] = biological target: human CD28 WT, transfected (human) (UniProt P10747); assay: co-IP; exogenously expressed Vav1 or Nck, each expressed alone, with hCD28 after stimulation with B7.1/CD80-expressing APC (Supplementary Fig. 8a, b)
[2] = biological target: human CD28 WT, transfected (human) (UniProt P10747); assay: co-IP; Nck and Vav1 co-expressed, with hCD28 (Supplementary Fig. 8c)
[3] = biological target: human CD28 (human (endogenous in primary CD4+ T cells)) (UniProt P10747); assay: co-IP; human primary CD4+ T cells stimulated 5 min with B7-negative or Dap3/B7 cells (p85 also after agonistic anti-CD28 Abs); 1% Nonidet P-40 lysis buffer, 150 mM NaCl, 20 mM Tris-HCl pH 7.5; anti-CD28 (CD28.2) IP on Protein-G Sepharose; western blot
[4] = biological target: mouse CD28 (mouse (endogenous in splenic CD4+ T cells)) (UniProt P31041); assay: co-IP; pooled mouse splenic CD4+ T cells stimulated 5 min with B7-negative or B7.1-expressing RAW cells (p85 also after agonistic anti-CD28 Abs); 1% Nonidet P-40 lysis buffer; anti-mouse CD28 (37.51) IP via rabbit anti-hamster on Protein-A Sepharose; western blot
[5] = biological target: human CD28 WT, transfected (human) (UniProt P10747); assay: co-IP; Nck and Vav1 co-expressed, with hCD28 (Supplementary Fig. 8c); remark: listed apart in the source

exogenously expressed Nck (from UniProt O43639 1-380)
binding [1]: binds | binding [2]: binds

B1: Vav1 (human, endogenous) (protein, UniProt P15498 1-845)
chain: MELWRQCTHWLIQCRVLPPSHRVTWDGAQVCELAQALRDGVLLCQLLNNLLPHAINLREVNLRPQMSQFLCLKNIRTFLSTCCEKFGLKRSELFEAFDLFDVQDFGKVIYTLSALSWTPIAQNRGIMPFPTEEESVGDEDIYSGLSDQIDDTVEEDEDLYDCVENEEAEGDEIYEDLMRSEPVSMPPKMTEYDKRCCCLREIQQTEEKYTDTLGSIQQHFLKPLQRFLKPQDIEIIFINIEDLLRVHTHFLKEMKEALGTPGAANLYQVFIKYKERFLVYGRYCSQVESASKHLDRVAAAREDVQMKLEECSQRANNGRFTLRDLLMVPMQRVLKYHLLLQELVKHTQEAMEKENLRLALDAMRDLAQCVNEVKRDNETLRQITNFQLSIENLDQSLAHYGRPKIDGELKITSVERRSKMDRYAFLLDKALLICKRRGDSYDLKDFVNLHSFQVRDDSSGDRDNKKWSHMFLLIEDQGAQGYELFFKTRELKKKWMEQFEMAISNIYPENATANGHDFQMFSFEETTSCKACQMLLRGTFYQGYRCHRCRASAHKECLGRVPPCGRHGQDFPGTMKKDKLHRRAQDKKRNELGLPKMEVFQEYYGLPPPPGAIGPFLRLNPGDIVELTKAEAEQNWWEGRNTSTNEIGWFPCNRVKPYVHGPPQDLSVHLWYAGPMERAGAESILANRSDGTFLVRQRVKDAAEFAISIKYNVEVKHIKIMTAEGLYRITEKKAFRGLTELVEFYQQNSLKDCFKSLDTTLQFPFKEPEKRTISRPAVGSTKYFGTAKARYDFCARDRSELSLKEGDIIKILNKKGQQGWWRGEIYGRVGWFPANYVEEDYSEYC
binding [3]: binds

B2: Vav1 (mouse, endogenous) (protein, UniProt P27870 1-845)
chain: MELWRQCTHWLIQCRVLPPSHRVTWEGAQVCELAQALRDGVLLCQLLNNLLPQAINLREVNLRPQMSQFLCLKNIRTFLSTCCEKFGLKRSELFEAFDLFDVQDFGKVIYTLSALSWTPIAQNKGIMPFPTEDSALNDEDIYSGLSDQIDDTAEEDEDLYDCVENEEAEGDEIYEDLMRLESVPTPPKMTEYDKRCCCLREIQQTEEKYTDTLGSIQQHFMKPLQRFLKPQDMETIFVNIEELFSVHTHFLKELKDALAGPGATTLYQVFIKYKERFLVYGRYCSQVESASKHLDQVATAREDVQMKLEECSQRANNGRFTLRDLLMVPMQRVLKYHLLLQELVKHTQDATEKENLRLALDAMRDLAQCVNEVKRDNETLRQITNFQLSIENLDQSLANYGRPKIDGELKITSVERRSKTDRYAFLLDKALLICKRRGDSYDLKASVNLHSFQVRDDSSGERDNKKWSHMFLLIEDQGAQGYELFFKTRELKKKWMEQFEMAISNIYPENATANGHDFQMFSFEETTSCKACQMLLRGTFYQGYRCYRCRAPAHKECLGRVPPCGRHGQDFAGTMKKDKLHRRAQDKKRNELGLPKMEVFQEYYGIPPPPGAFGPFLRLNPGDIVELTKAEAEHNWWEGRNTATNEVGWFPCNRVHPYVHGPPQDLSVHLWYAGPMERAGAEGILTNRSDGTYLVRQRVKDTAEFAISIKYNVEVKHIKIMTSEGLYRITEKKAFRGLLELVEFYQQNSLKDCFKSLDTTLQFPYKEPERRAISKPPAGSTKYFGTAKARYDFCARDRSELSLKEGDIIKILNKKGQQGWWRGEIYGRIGWFPSNYVEEDYSEYC
binding [4]: binds

B3: exogenously expressed Vav1 (protein, UniProt P15498 1-845)
chain: B1 chain
binding [5]: no binding (condition: with Nck co-expressed) | binding [1]: binds
